This is one part of the list. The list includes weakly bound sequences.

The results in this text go back to article PMC12820563.

In this test the target is T1, MBP-FoxP3dN (UniProt Q99JB6).
T1 sequence: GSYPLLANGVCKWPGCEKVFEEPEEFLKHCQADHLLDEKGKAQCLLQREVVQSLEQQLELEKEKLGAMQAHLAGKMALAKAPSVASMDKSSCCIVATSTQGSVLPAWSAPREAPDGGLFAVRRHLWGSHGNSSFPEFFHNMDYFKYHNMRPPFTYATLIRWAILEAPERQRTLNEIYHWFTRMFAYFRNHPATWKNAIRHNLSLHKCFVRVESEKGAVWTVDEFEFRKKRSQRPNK
The experiment in a line: PD-seq (MBP pull-down with sequencing). Particulars: 20 mM Tris-HCl pH 7.5, 100 mM NaCl, 1.5 mM MgCl2, 0.4 uM protein, 0.1 uM dsDNA library, 30 min, room temperature, amylose pull-down; high values mean tight binding; double strand, one strand shown.
Turning to “GATGATTGTTCTCCCAGCTGATGAATTCGCTAATTCGAGTAAACAAATTTTCCTAATCTTTCTGTTCAAGCGCCATCTAC”, the binding signal (RPM ratio (pull-down/input)) came out at 0.295.
With “GATGATTGTTCTCCCAGCTGATGAATTGTACTGGTCGAGTAAACAAATTTTCCTAATCTTTCTGTTCAAGCGCCATCTAC”, the binding signal (RPM ratio (pull-down/input)) came out at 0.401.
For “GATGATTGTTCTCCCAGCTGATGAATTATGGGCTTCGAGTAAACAAATTTTCCTAATCTTTCTGTTCAAGCGCCATCTAC”, the binding signal (RPM ratio (pull-down/input)) was found to be 0.459.
For “GATGATTGTTCTCCCAGCTGATGAATTCTGGCTTTCGAGTAAACAAATTTTCCTAATCTTTCTGTTCAAGCGCCATCTAC”, the binding signal (RPM ratio (pull-down/input)) was determined as 0.896.
As for “GATGATTGTTCTCCCAGCTGATGAATTGAGATATTCGAGTAAACAAATTTTCCTAATCTTTCTGTTCAAGCGCCATCTAC”, the figure is 0.723.
As for “GATGATTGTTCTCCCAGCTGATGAATTCCGCATGTCGAGTAAACAAATTTTCCTAATCTTTCTGTTCAAGCGCCATCTAC”, the figure is 5.82; as for “GATGATTGTTCTCCCAGCTGATGAATTGCAAGAATCGAGTAAACAAATTTTCCTAATCTTTCTGTTCAAGCGCCATCTAC”, 0.396.
For “GATGATTGTTCTCCCAGCTGATGAATTGTTGTCTTCGAGTAAACAAATTTTCCTAATCTTTCTGTTCAAGCGCCATCTAC”, the binding signal (RPM ratio (pull-down/input)) is 5.62.
As for “GATGATTGTTCTCCCAGCTGATGAATTCAGGACATCGAGTAAACAAATTTTCCTAATCTTTCTGTTCAAGCGCCATCTAC”, the figure is 0.358.
Regarding “GATGATTGTTCTCCCAGCTGATGAATTAATTTAATCGAGTAAACAAATTTTCCTAATCTTTCTGTTCAAGCGCCATCTAC”, the binding signal (RPM ratio (pull-down/input)) was found to be 0.482.
Next, “GATGATTGTTCTCCCAGCTGATGAATTTACTGTATCGAGTAAACAAATTTTCCTAATCTTTCTGTTCAAGCGCCATCTAC”: 1.26; “GATGATTGTTCTCCCAGCTGATGAATTACGCCACTCGAGTAAACAAATTTTCCTAATCTTTCTGTTCAAGCGCCATCTAC”: 6.17.
Next, “GATGATTGTTCTCCCAGCTGATGAATTCGTAGCCTCGAGTAAACAAATTTTCCTAATCTTTCTGTTCAAGCGCCATCTAC”: 0.875.
As for “GATGATTGTTCTCCCAGCTGATGAATTCGGCGGCTCGAGTAAACAAATTTTCCTAATCTTTCTGTTCAAGCGCCATCTAC”, the figure is 0.636; as for “GATGATTGTTCTCCCAGCTGATGAATTGGCACGCTCGAGTAAACAAATTTTCCTAATCTTTCTGTTCAAGCGCCATCTAC”, 0.437.
“GATGATTGTTCTCCCAGCTGATGAATTAGATGGATCGAGTAAACAAATTTTCCTAATCTTTCTGTTCAAGCGCCATCTAC”: the binding signal (RPM ratio (pull-down/input)) was 0.36.
As for “GATGATTGTTCTCCCAGCTGATGAATTTGGTTGTTCGAGTAAACAAATTTTCCTAATCTTTCTGTTCAAGCGCCATCTAC”, the figure is 5.35; as for “GATGATTGTTCTCCCAGCTGATGAATTAACCTCCTCGAGTAAACAAATTTTCCTAATCTTTCTGTTCAAGCGCCATCTAC”, 0.273.
Next, “GATGATTGTTCTCCCAGCTGATGAATTGGGCGCTTCGAGTAAACAAATTTTCCTAATCTTTCTGTTCAAGCGCCATCTAC”: 0.733.
Next, “GATGATTGTTCTCCCAGCTGATGAATTCGGACAATCGAGTAAACAAATTTTCCTAATCTTTCTGTTCAAGCGCCATCTAC”: 0.32.
With “GATGATTGTTCTCCCAGCTGATGAATTTGCCGGATCGAGTAAACAAATTTTCCTAATCTTTCTGTTCAAGCGCCATCTAC”, the binding signal (RPM ratio (pull-down/input)) is 0.286.
As for “GATGATTGTTCTCCCAGCTGATGAATTTATTTTTTCGAGTAAACAAATTTTCCTAATCTTTCTGTTCAAGCGCCATCTAC”, the figure is 4.63; as for “GATGATTGTTCTCCCAGCTGATGAATTGGTAACCTCGAGTAAACAAATTTTCCTAATCTTTCTGTTCAAGCGCCATCTAC”, 0.474; as for “GATGATTGTTCTCCCAGCTGATGAATTCAGTCAATCGAGTAAACAAATTTTCCTAATCTTTCTGTTCAAGCGCCATCTAC”, 0.356.
Next, “GATGATTGTTCTCCCAGCTGATGAATTTGGCCGATCGAGTAAACAAATTTTCCTAATCTTTCTGTTCAAGCGCCATCTAC”: 0.473; “GATGATTGTTCTCCCAGCTGATGAATTCGGAGTATCGAGTAAACAAATTTTCCTAATCTTTCTGTTCAAGCGCCATCTAC”: 0.535; “GATGATTGTTCTCCCAGCTGATGAATTCCGCAATTCGAGTAAACAAATTTTCCTAATCTTTCTGTTCAAGCGCCATCTAC”: 4.91.
As for “GATGATTGTTCTCCCAGCTGATGAATTGTGATGGTCGAGTAAACAAATTTTCCTAATCTTTCTGTTCAAGCGCCATCTAC”, the figure is 1.72; as for “GATGATTGTTCTCCCAGCTGATGAATTACTGGATTCGAGTAAACAAATTTTCCTAATCTTTCTGTTCAAGCGCCATCTAC”, 0.293; as for “GATGATTGTTCTCCCAGCTGATGAATTTTTTGACTCGAGTAAACAAATTTTCCTAATCTTTCTGTTCAAGCGCCATCTAC”, 0.273.
For “GATGATTGTTCTCCCAGCTGATGAATTGGAGTTTTCGAGTAAACAAATTTTCCTAATCTTTCTGTTCAAGCGCCATCTAC”, the binding signal (RPM ratio (pull-down/input)) was 0.641.
As for “GATGATTGTTCTCCCAGCTGATGAATTGGCCCACTCGAGTAAACAAATTTTCCTAATCTTTCTGTTCAAGCGCCATCTAC”, the figure is 0.349.
With “GATGATTGTTCTCCCAGCTGATGAATTTCTTGCATCGAGTAAACAAATTTTCCTAATCTTTCTGTTCAAGCGCCATCTAC”, the binding signal (RPM ratio (pull-down/input)) came to 1.
As for “GATGATTGTTCTCCCAGCTGATGAATTGACTTGGTCGAGTAAACAAATTTTCCTAATCTTTCTGTTCAAGCGCCATCTAC”, the figure is 0.402; as for “GATGATTGTTCTCCCAGCTGATGAATTGAAAATTTCGAGTAAACAAATTTTCCTAATCTTTCTGTTCAAGCGCCATCTAC”, 0.227.
Next, “GATGATTGTTCTCCCAGCTGATGAATTCTGGTAGTCGAGTAAACAAATTTTCCTAATCTTTCTGTTCAAGCGCCATCTAC”: 0.541.
As for “GATGATTGTTCTCCCAGCTGATGAATTTAGCTTTTCGAGTAAACAAATTTTCCTAATCTTTCTGTTCAAGCGCCATCTAC”, the figure is 3.14; as for “GATGATTGTTCTCCCAGCTGATGAATTTGTAACGTCGAGTAAACAAATTTTCCTAATCTTTCTGTTCAAGCGCCATCTAC”, 1.76.
As for “GATGATTGTTCTCCCAGCTGATGAATTTATGGGATCGAGTAAACAAATTTTCCTAATCTTTCTGTTCAAGCGCCATCTAC”, the binding signal (RPM ratio (pull-down/input)) came to 0.404.
With “GATGATTGTTCTCCCAGCTGATGAATTCAACAAATCGAGTAAACAAATTTTCCTAATCTTTCTGTTCAAGCGCCATCTAC”, the binding signal (RPM ratio (pull-down/input)) was found to be 0.376.
Next, “GATGATTGTTCTCCCAGCTGATGAATTCACCAGTTCGAGTAAACAAATTTTCCTAATCTTTCTGTTCAAGCGCCATCTAC”: 0.256; “GATGATTGTTCTCCCAGCTGATGAATTGCGCCCTTCGAGTAAACAAATTTTCCTAATCTTTCTGTTCAAGCGCCATCTAC”: 2.29.
Regarding “GATGATTGTTCTCCCAGCTGATGAATTATATCAATCGAGTAAACAAATTTTCCTAATCTTTCTGTTCAAGCGCCATCTAC”, the binding signal (RPM ratio (pull-down/input)) was determined as 0.56.
As for “GATGATTGTTCTCCCAGCTGATGAATTTTTAGTATCGAGTAAACAAATTTTCCTAATCTTTCTGTTCAAGCGCCATCTAC”, the figure is 0.38; as for “GATGATTGTTCTCCCAGCTGATGAATTCTCCAAGTCGAGTAAACAAATTTTCCTAATCTTTCTGTTCAAGCGCCATCTAC”, 0.162.
“GATGATTGTTCTCCCAGCTGATGAATTAGACTAATCGAGTAAACAAATTTTCCTAATCTTTCTGTTCAAGCGCCATCTAC”: the binding signal (RPM ratio (pull-down/input)) was 0.311.
As for “GATGATTGTTCTCCCAGCTGATGAATTTAGGCTTTCGAGTAAACAAATTTTCCTAATCTTTCTGTTCAAGCGCCATCTAC”, the figure is 1.19; as for “GATGATTGTTCTCCCAGCTGATGAATTCTCGCAGTCGAGTAAACAAATTTTCCTAATCTTTCTGTTCAAGCGCCATCTAC”, 0.436; as for “GATGATTGTTCTCCCAGCTGATGAATTCGAGTGCTCGAGTAAACAAATTTTCCTAATCTTTCTGTTCAAGCGCCATCTAC”, 0.572.
Next, “GATGATTGTTCTCCCAGCTGATGAATTAGTTACTTCGAGTAAACAAATTTTCCTAATCTTTCTGTTCAAGCGCCATCTAC”: 1.03.
As for “GATGATTGTTCTCCCAGCTGATGAATTCAGCCAGTCGAGTAAACAAATTTTCCTAATCTTTCTGTTCAAGCGCCATCTAC”, the figure is 1.27; as for “GATGATTGTTCTCCCAGCTGATGAATTGTGCTAATCGAGTAAACAAATTTTCCTAATCTTTCTGTTCAAGCGCCATCTAC”, 0.571.
Turning to “GATGATTGTTCTCCCAGCTGATGAATTACCTCTCTCGAGTAAACAAATTTTCCTAATCTTTCTGTTCAAGCGCCATCTAC”, the binding signal (RPM ratio (pull-down/input)) amounted to 0.327.
For the sequence “GATGATTGTTCTCCCAGCTGATGAATTCGCCGGCTCGAGTAAACAAATTTTCCTAATCTTTCTGTTCAAGCGCCATCTAC”, the binding signal (RPM ratio (pull-down/input)) was 0.225.
With “GATGATTGTTCTCCCAGCTGATGAATTGGCTGCATCGAGTAAACAAATTTTCCTAATCTTTCTGTTCAAGCGCCATCTAC”, the binding signal (RPM ratio (pull-down/input)) is 1.02.
As for “GATGATTGTTCTCCCAGCTGATGAATTACTCTCATCGAGTAAACAAATTTTCCTAATCTTTCTGTTCAAGCGCCATCTAC”, the figure is 0.35; as for “GATGATTGTTCTCCCAGCTGATGAATTTGAAACTTCGAGTAAACAAATTTTCCTAATCTTTCTGTTCAAGCGCCATCTAC”, 0.279.
Next, “GATGATTGTTCTCCCAGCTGATGAATTCTCATTGTCGAGTAAACAAATTTTCCTAATCTTTCTGTTCAAGCGCCATCTAC”: 0.606.
As for “GATGATTGTTCTCCCAGCTGATGAATTAGCACAATCGAGTAAACAAATTTTCCTAATCTTTCTGTTCAAGCGCCATCTAC”, the figure is 0.552; as for “GATGATTGTTCTCCCAGCTGATGAATTCTTGTCCTCGAGTAAACAAATTTTCCTAATCTTTCTGTTCAAGCGCCATCTAC”, 0.325; as for “GATGATTGTTCTCCCAGCTGATGAATTTCTTAACTCGAGTAAACAAATTTTCCTAATCTTTCTGTTCAAGCGCCATCTAC”, 0.224.
As to “GATGATTGTTCTCCCAGCTGATGAATTGATAGCCTCGAGTAAACAAATTTTCCTAATCTTTCTGTTCAAGCGCCATCTAC”, the binding signal (RPM ratio (pull-down/input)) worked out at 0.653.
As for “GATGATTGTTCTCCCAGCTGATGAATTGCAATATTCGAGTAAACAAATTTTCCTAATCTTTCTGTTCAAGCGCCATCTAC”, the figure is 1.86.
